Measurements: paper PMC4336329 (PLoS ONE, 2015)
Out of some 310,000 compounds screened, about 14,000 (4.5%) showed an effect of 50% or more. Effects have a minus sign here. The list shows a part of the results.

Target: human ether-à-go-go-related gene (hERG) potassium channel (human, UniProt Q12809)
Test: primary screen, population patch clamp on CHO cells stably expressing hERG
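Note: peak tail current of the secondary pulse compared with the same well before compound.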

human ether-à-go-go-related gene (hERG) potassium channel, sequence (Q12809 whole entry, looked up): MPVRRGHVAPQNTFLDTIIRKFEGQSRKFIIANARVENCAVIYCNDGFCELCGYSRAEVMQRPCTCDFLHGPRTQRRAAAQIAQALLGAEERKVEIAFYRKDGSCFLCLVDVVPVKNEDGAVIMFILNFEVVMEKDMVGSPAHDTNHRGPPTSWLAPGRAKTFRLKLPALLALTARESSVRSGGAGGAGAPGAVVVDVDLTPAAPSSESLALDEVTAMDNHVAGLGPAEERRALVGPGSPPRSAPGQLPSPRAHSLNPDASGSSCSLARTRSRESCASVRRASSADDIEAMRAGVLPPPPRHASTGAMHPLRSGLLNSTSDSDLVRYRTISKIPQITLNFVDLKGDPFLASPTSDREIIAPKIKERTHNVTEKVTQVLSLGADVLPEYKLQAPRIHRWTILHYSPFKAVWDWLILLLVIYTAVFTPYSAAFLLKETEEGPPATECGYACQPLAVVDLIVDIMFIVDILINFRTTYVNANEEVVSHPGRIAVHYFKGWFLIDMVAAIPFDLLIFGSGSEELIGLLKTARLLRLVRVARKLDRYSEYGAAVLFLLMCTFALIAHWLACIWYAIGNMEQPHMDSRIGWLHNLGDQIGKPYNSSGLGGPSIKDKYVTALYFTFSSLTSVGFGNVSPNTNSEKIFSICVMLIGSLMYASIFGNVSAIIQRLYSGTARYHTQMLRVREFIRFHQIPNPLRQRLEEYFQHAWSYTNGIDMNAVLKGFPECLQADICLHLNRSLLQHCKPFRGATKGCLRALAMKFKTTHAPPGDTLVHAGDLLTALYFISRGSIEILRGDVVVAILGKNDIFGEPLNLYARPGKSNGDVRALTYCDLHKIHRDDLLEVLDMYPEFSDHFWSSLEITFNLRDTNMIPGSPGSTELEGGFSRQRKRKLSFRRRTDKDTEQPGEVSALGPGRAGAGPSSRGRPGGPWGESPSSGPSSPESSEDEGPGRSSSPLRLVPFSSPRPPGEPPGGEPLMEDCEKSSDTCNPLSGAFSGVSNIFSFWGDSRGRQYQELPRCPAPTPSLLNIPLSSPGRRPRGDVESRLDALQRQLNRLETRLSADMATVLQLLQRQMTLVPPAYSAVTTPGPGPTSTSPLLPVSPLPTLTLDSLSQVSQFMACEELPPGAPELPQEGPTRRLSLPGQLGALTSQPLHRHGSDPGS

| SMILES | hERG current change (%, negative = inhibition) at 10uM [%] |
| --- | --- |
| Cc1ccc(S(=O)(=O)NC(=O)COc2ccccc2)cc1 | 16.1 |
| COc1ccc(OCC(=O)Nc2ccc(NC(=O)c3cccs3)cc2)cc1 | 13.9 |
| Cc1ccc(NS(=O)(=O)c2cc(C(=O)NCc3cccnc3)ccc2C)cc1 | -28.3 |
| NCCNC(=O)c1c(NC(=O)c2ccccc2)sc2c1CCCC2 | 15.4 |
| Cc1nnc(NC(=O)c2ccccc2Br)s1 | -1.65 |
| COc1ccc(Cc2nnc(SCC(=O)N(C)c3ccccc3)o2)cc1 | 3.3 |
| O=C(CCCC(=O)NCCc1ccccc1)NCCc1ccccc1 | -7.91 |
| COc1ccc(CCN(C)CC(=O)Nc2c(C)cc(C)cc2C)cc1OC.Cl | 4.26 |
| O=Cc1ccc(-c2cccc(C(=O)O)c2)o1 | 16.1 |
| COc1ccc(S(=O)(=O)Nc2ccccn2)cc1 | 13.8 |
| O=C(c1ccccc1)c1nc2ccccc2n(CCCn2c(=O)c(C(=O)c3ccccc3)nc3ccccc32)c1=O | -16.1 |
| COC(=O)C1C(=O)c2c([nH]c(C(=O)OCC3CCCO3)c2C)CC1C (stereo not shown) | 3.02 |
| CCN(CC)c1ccc(NC(=O)CCNS(=O)(=O)c2ccc3c(c2)CCC(=O)N3)c(C)c1 | 5.77 |
| COc1cc(CNCCO)ccc1OCC(=O)Nc1ccc(Br)cc1 | -36.2 |
| CCOc1ccc(C2c3[nH]c4ccccc4c3CCN2CCCn2cccn2)cc1 (stereo not shown) | -68.7 |
| Cn1nnnc1SCC(=O)Nc1ccc(Cl)c(S(=O)(=O)N2CCOCC2)c1 | 2.85 |
| c1ccc(CNc2nc(-c3cccnc3)cs2)cc1 | -14 |
| OCCC1CN(Cc2nc3ccccc3[nH]2)CCN1C1CCCC1 (stereo not shown) | 3.43 |
| CC1(C(=O)N(Cc2ccccc2)Cc2ccccc2)CC1(Br)Br (stereo not shown) | -12.3 |
| Cc1ccc(CNS(=O)(=O)c2cn(C)c(=O)n(C)c2=O)cc1 | -0.643 |
| Cc1nc(N)nc(C)c1Cc1ccccc1 | 8.87 |
| Cc1ccc(C)c2[nH]c(=O)c(CCNC(=O)CCc3ccccc3)cc12 | 6.68 |
| NNc1nc2cccnc2n(CCNc2ncc(C(F)(F)F)cc2Cl)c1=O | 7.56 |
| CCOC(=O)C(NCc1ccccn1)(NC(=O)c1cccnc1)C(F)(F)F (stereo not shown) | -1.18 |
| Cc1ccccc1Cn1cnc2ccccc2c1=O | -14.6 |
